Assay results as given in the supplement of paper PMC12645437, “Orthogonal IMiD-Degron Pairs Induce Selective Protein Degradation in Cells” (ACS Chemical Biology, 2025).
The list shows a part of the results.

Target: no compound (DMSO)
Assay: log2 fold change of degron read counts, EGFP-low vs EGFP+ sorted cells; higher = lower degron-EGFP level without compound (poor expression or instability)
Details: compound: DMSO control; 18 h
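Further: jurkat cells carrying a lentiviral library of mutant zinc finger degrons fused to EGFP plus mCherry, mCherry+ cells FACS sorted, degron abundance counted by next-generation sequencing.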

Sequence	log2 fold change of degron read counts
FQCNQCGAWFTQKGNLLRHIKL	-0.931
FNCPQCGAWFTQKGNLLRHIKL	-0.107
FWCNQCGRIFTQKGNLLRHIKL	2.04
FQCEICGRSFTQKGNLLRHIKL	-1.18
FKCEICGADFTQKGNLLRHIKL	-3.6
FQCNQCGAAFTQKGNLLRHIKL	-1.7
FMCDICGAYFTQKGNLLRHIKL	-0.652
FFCNICGAFFTQKGNLLRHIKL	1.19
FSCEICGAWFTQKGNLLRHIKL	-0.914
FICSVCGHYFTQKGNLLRHIKL	0.255
FTCEVCGAIFTQKGNLLRHIKL	-1.64
FCCPQCGAIFTQKGNLLRHIKL	-0.0876
FICSVCGHQFTQKGNLLRHIKL	-1.64
FRCPICGRLFTQKGNLLRHIKL	0.267
LGCNQCGFACTQKGNLLRHIKL	1.01
FTCPQCGAIFTQKGNLLRHIKL	-0.768
FECNQCGRPFTQKGNLLRHIKL	-0.992
LHCEICGFRCTQKGNLLRHIKL	-0.207
FQCPVCGAVFTQKGNLLRHIKL	0.126
FKCDQCGASFTQKGNLLRHIKL	-2.05
LHCNQCGFICTQKGNLLRHIKL	0.906
FICEICGRLFTQKGNLLRHIKL	-0.39
FQCPVCGAMFTQKGNLLRHIKL	0.115
FTCEQCGAYFTQKGNLLRHIKL	-0.909
FRCPVCGATFTQKGNLLRHIKL	-1.04

Sequence	log2 fold change of degron read counts
FMCNICGARFTQKGNLLRHIKL	-0.236
FFCPQCGATFTQKGNLLRHIKL	-0.0669
FKCEQCGAGFTQKGNLLRHIKL	-2.33
FECNQCGRSFTQKGNLLRHIKL	-0.78
FECNICGAVFTQKGNLLRHIKL	-1.13
FDCSVCGHKFTQKGNLLRHIKL	-0.107
FMCEICGHHFTQKGNLLRHIKL	-1.59
FKCNVCGAPFTQKGNLLRHIKL	0.12
FKCNQCGHFFTQKGNLLRHIKL	-0.622
FWCNQCGHNFTQKGNLLRHIKL	1.4
FKCDQCGAGFTQKGNLLRHIKL	-1.56
FNCEICGAFFTQKGNLLRHIKL	-0.835
LYCEICGFLCTQKGNLLRHIKL	1.51
FKCPQCGAPFTQKGNLLRHIKL	-1.86
FECEICGRIFTQKGNLLRHIKL	-1.68
FTCEICGHWFTQKGNLLRHIKL	-0.613
FMCNQCGRSFTQKGNLLRHIKL	-0.771
FDCNQCGHPFTQKGNLLRHIKL	0.395
FFCNQCGAAFTQKGNLLRHIKL	0.087
FLCPICGHQFTQKGNLLRHIKL	-1.52
LMCNQCGFFCTQKGNLLRHIKL	1.79
FLCPICGHDFTQKGNLLRHIKL	-0.0429
LGCPICGFGCTQKGNLLRHIKL	1.06
FCCPICGAIFTQKGNLLRHIKL	0.583
FTCEVCGAGFTQKGNLLRHIKL	-1.51
